# Experimental data reported in PubChem BioAssay (NCATS).
# Inconclusive results, whose numbers are uncertain, are shown with a selection of clear calls. For some of these results: Potencies of inconclusive entries are left out as doubtful fits. Active and inactive are the calls of the source. Unless noted, calls come from the whole dose curve; as a rule, active = well fitted curve in the direction sought with a large enough effect; inconclusive = small, poorly fitted or top-dose-only effect, or another doubt; inactive = no such curve, though single readings can be large; an effect the other way counts as inactive or inconclusive.
# Tests used:
# [1] = Cytometry Cell-Based qHTS for Inhibitors of the mTORC1 Signaling Pathway in MEF cells (AID 2668); note: potency is the fitted concentration of half-maximal effect
# Procedure, shortened: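 Read-out: phospho-rpS6 Ser235/236 immunofluorescence normalized to propidium iodide intensity, scored as % active cells against a rapamycin (7.5 nM) threshold. Cells: Tsc2-/-, p53-/- MEFs stably expressing WT Tsc2, compound-treated 24 hrs at 37 degree Celsius.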
# [2] = qHTS Validation Assay to Find Inhibitors of Chronic Active B-Cell Receptor Signaling (AID 485345; active = well fitted curve in the direction sought with a large enough effect in the main read-out, with a control signal flat, not every such curve was filed as active; inconclusive = small, poorly fitted or top-dose-only effect, or effect the other way, or a change in a side signal; inactive = no such curve, though single readings can be large or run the other way;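 note: 0% = untreated basal cells and 100% = 10 µM MG-132 proteasome inhibitor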); details: ABC-DLBCL cells, chronic BCR signaling reporter; activity change: CBG luciferase, at 46.1 µM (top of the series)
# Procedure, shortened: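 Read-out: ratio of filter-corrected green (IkappaBalpha fusion) to red (native) luciferase signal in doxycycline-induced TMD8 cells after 4 h at 37C. Titration spanned 46 uM–3 nM; Data were normalised to basal cells and 10 uM MG-132 wells.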
# [3] = target: ATP-dependent 6-phosphofructokinase (Trypanosoma brucei brucei) (UniProt O15648); assay: qHTS Validation Assay to Find Inhibitors of T. brucei phosphofructokinase (AID 485368); details: activity change, negative = inhibition: at 57.5 µM (top of the series); note: potency is the fitted concentration of half-maximal effect;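 for activity change, negative = inhibition: 0% = full PFK enzyme control and -100% = wells without enzyme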
# Procedure, shortened: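 Compounds (up to 57 uM, titration series) were pinned into substrate buffer, then 1.25 nM PFK added; after 45 min at room temperature, ADP product was quantified by ADP-Glo luminescence and concentration-response curves fitted.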
# [4] = Quantitative high throughput screen for delayed death inhibitors of the malarial parasite plastid, 96 hour incubation (AID 488745); note: nearly all actives have a fitted effect of over 70% in size; note: potency is the fitted concentration of half-maximal effect;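 for activity change, negative = inhibition: luciferase-expressing P. falciparum in erythrocytes at 2% hematocrit and 0.1% parasitemia; % is set by controls: 0 for no effect and ±100 for the full control effect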
# Procedure, shortened: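 Growth of reporter-bearing P. falciparum in red cells is measured after 96 h with compound, covering two erythrocytic cycles. Luminescence from the integrated luciferase serves as the growth signal.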
# [5] = Cytometric Cell-Based qHTS for Inhibitors of the mTORC1 Signaling Pathway in MEF (Tsc2-/-, p53-/-) Cells (AID 2660); note: potency is the fitted concentration of half-maximal effect;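 for activity change, negative = inhibition: Tsc2 and p53 null MEFs carrying empty vector with compound for 24 h; percent of cells above a phospho-rpS6 to PI ratio cutoff in each well; plate controls were DMSO for no effect and rapamycin for full effect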
# Procedure, shortened: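 Readout: Alexa-488 phospho-rpS6 (Ser235/236) intensity divided by PI intensity, thresholded against 7.5 nM rapamycin wells and reported as % positive cells. PI cell count served as the viability measure. Compound exposure was 24 hrs at 37 degree Celsius.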
# [6] = High Content Imaging Cell-Based qHTS for Inhibitors of the mTORC1 Signaling Pathway in MEF (Tsc2-/-, p53-/-) Cells (AID 2666);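 note: percent of cells scored positive for phospho-rpS6 Ser235/236 immunostaining by imaging; potency is the fitted concentration of half-maximal effect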
# Procedure, shortened: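 Cells were plated, dosed with compound after 24 hrs, and incubated another 24 hrs at 37 degree Celsius. Fixed cells were immunostained for phospho-rpS6 Ser235/236 and counterstained, and the normalized signal was scored as % active cells against rapamycin and DMSO controls.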
# [7] = Validation screen for small molecules that induce DNA re-replication in MCF 10A normal breast cells (AID 463097); note: nearly all actives have a fitted effect of over 60% in size; note: potency is the fitted concentration of half-maximal effect
# Procedure, shortened: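 250 MCF 10A cells/well; compound pin-transferred; 48 hr, 37 C, 5% CO2; Hoechst 40 min; imaged 405/500-530 nm. Hits = more high-intensity nuclei.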
# [8] = target: DNA polymerase III PolC-type (Bacillus subtilis (strain 168)) (UniProt P13267); assay: qHTS Validation Assay for the Inhibitors of DNA Replication in Gram-Positive Bacteria (AID 485295); details: Gram-positive bacterial DNA replication assay; note: potency is the fitted concentration of half-maximal effect
# Procedure, shortened: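 PicoGreen fluorescence (ex 480–485/em 535–540 nm) reports dsDNA synthesized on ssM13Gori template with dNTPs/NTPs. Enzyme: holoenzyme rebuilt from purified PolC, beta subunit, SSB and primase. Compound preincubated before substrate addition; RT throughout.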
# [9] = Quantitative high throughput screen for delayed death inhibitors of the malarial parasite plastid, 48 hour incubation (AID 488752); note: potency is the fitted concentration of half-maximal effect; nearly all actives have a fitted effect of over 65% in size
# Procedure, shortened: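 One parasite generation (48 h, 37 C, 5% CO2) of luciferase-reporter P. falciparum in erythrocytes is run with test compound; decreased luminescence indicates inhibited growth.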
# [10] = target: Transient receptor potential cation channel subfamily V member 1 (Homo sapiens) (UniProt Q8NER1); assay: HTS Assay for Compounds that Act as Enhancers of the Vanilloid Receptor 1 (AID 488979); details: TRPV1-expressing cells, enhancer of channel activity; stimulated with capsaicin at EC20; note: potency is the fitted concentration of half-maximal effect
# Procedure, shortened: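 Calcium influx kinetics via Fluo-8 (480/520 nm) in TRPV1-expressing cells, 2000/well cultured overnight at 35.5C. Compound-alone read 3 min (agonist phase), followed by EC20 capsaicin challenge for 2 min (enhancer phase).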
# [11] = target: Chromobox protein homolog 1 (Homo sapiens) (UniProt P83916); assay: qHTS Validation Assay for Inhibitors of HP1-beta Chromodomain Interactions with Methylated Histone Tails (AID 488953); note: nearly all actives have a fitted effect of over 50% in size; note: potency is the fitted concentration of half-maximal effect;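 for activity change, negative = inhibition: loss of AlphaScreen luminescence from HP1-beta binding biotinylated H3K9me3 peptide; % is set by controls: 0 for no effect and ±100 for the full control effect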
# Procedure, shortened: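 Measured as loss of AlphaScreen luminescence from streptavidin donor and nickel acceptor beads (10 ug/mL final) bridging HP1-beta and biotin-H3(1-18)K9me3, each 50 nM. Compounds met the preassembled complex for 30 min at RT.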
# [12] = target: DNA repair nuclease/redox regulator APEX1 (Homo sapiens) (UniProt P27695); assay: qHTS FP-Based Assay for Inhibitors of the Human Apurinic/apyrimidinic Endonuclease 1 (APE1) (AID 2573); note: potency is the fitted concentration of half-maximal effect
# [13] = target: Thioredoxin reductase 1, cytoplasmic (Rattus norvegicus) (UniProt O89049); assay: qHTS Assay for Inhibitors of Mammalian Selenoprotein Thioredoxin Reductase 1 (TrxR1) (AID 488773); details: Potency: inhibition; note: potency is the fitted concentration of half-maximal effect; nearly all actives have a fitted effect of over 40% in size
# Procedure, shortened: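 Steps: enzyme (90 nM) plus NADPH (400 uM final), 5 min at ~22 deg C; compound added, 15 min; selenite (400 uM final) added; fluorescence followed for 8 min. Concentration-response curves derived from the normalized delta values.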
# Tags give direction and shape of the fitted curve.
# Sequence of UniProt O15648 (O15648 whole entry, looked up): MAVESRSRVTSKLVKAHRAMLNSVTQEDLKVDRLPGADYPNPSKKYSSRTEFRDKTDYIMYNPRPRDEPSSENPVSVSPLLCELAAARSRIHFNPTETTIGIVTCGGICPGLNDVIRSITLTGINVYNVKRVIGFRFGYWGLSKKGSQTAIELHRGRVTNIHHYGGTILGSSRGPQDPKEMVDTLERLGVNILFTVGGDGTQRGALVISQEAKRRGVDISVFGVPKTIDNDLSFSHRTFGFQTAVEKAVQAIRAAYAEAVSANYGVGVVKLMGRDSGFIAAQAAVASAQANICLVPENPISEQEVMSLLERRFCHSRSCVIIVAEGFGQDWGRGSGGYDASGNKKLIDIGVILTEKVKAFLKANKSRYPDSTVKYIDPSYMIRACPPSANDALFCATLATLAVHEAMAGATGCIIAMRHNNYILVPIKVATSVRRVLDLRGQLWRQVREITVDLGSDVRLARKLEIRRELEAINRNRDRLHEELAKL
# Sequence of UniProt P83916 (P83916 whole entry, looked up): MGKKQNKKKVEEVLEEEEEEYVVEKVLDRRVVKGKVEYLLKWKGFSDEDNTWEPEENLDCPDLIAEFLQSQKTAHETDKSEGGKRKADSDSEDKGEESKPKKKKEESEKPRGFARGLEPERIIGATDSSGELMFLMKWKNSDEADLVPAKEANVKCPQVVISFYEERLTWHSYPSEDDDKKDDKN
# Sequence of UniProt P13267 (P13267 whole entry, looked up): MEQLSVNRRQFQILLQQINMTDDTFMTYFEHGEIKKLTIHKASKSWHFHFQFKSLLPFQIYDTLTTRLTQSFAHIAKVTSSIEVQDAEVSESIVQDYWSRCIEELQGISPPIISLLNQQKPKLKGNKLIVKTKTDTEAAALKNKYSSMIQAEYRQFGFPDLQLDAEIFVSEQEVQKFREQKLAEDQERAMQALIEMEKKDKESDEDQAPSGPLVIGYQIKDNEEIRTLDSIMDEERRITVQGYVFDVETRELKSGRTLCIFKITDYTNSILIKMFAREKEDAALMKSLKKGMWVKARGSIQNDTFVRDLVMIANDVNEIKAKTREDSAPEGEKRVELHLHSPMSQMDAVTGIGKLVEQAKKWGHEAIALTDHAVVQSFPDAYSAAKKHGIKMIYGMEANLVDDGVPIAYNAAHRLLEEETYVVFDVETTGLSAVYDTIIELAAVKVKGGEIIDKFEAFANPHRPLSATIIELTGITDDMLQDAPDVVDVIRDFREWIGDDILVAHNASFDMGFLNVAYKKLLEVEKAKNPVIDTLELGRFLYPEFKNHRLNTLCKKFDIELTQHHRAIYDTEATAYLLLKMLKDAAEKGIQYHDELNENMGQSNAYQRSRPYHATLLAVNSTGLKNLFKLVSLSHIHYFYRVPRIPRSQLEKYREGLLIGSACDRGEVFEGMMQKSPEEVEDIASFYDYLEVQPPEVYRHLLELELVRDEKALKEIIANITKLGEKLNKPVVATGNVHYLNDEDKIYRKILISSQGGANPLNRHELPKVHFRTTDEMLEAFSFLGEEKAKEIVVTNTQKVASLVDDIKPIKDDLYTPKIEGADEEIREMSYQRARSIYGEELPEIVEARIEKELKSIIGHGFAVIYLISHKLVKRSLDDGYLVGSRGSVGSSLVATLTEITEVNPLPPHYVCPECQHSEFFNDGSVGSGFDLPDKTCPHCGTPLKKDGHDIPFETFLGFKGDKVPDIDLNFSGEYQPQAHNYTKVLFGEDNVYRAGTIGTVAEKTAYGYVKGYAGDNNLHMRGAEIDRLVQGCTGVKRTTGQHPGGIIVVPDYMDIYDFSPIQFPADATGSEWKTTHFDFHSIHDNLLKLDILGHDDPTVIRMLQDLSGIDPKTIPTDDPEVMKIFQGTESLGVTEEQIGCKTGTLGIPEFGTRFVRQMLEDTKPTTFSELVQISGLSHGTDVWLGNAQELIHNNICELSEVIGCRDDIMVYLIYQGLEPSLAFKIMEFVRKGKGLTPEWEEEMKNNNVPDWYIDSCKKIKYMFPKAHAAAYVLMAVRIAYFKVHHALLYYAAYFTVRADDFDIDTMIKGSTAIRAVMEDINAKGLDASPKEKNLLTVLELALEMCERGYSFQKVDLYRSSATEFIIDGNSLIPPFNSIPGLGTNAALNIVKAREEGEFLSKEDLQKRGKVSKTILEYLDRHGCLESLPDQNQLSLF
# Sequence of UniProt Q8NER1 (Q8NER1 whole entry, looked up): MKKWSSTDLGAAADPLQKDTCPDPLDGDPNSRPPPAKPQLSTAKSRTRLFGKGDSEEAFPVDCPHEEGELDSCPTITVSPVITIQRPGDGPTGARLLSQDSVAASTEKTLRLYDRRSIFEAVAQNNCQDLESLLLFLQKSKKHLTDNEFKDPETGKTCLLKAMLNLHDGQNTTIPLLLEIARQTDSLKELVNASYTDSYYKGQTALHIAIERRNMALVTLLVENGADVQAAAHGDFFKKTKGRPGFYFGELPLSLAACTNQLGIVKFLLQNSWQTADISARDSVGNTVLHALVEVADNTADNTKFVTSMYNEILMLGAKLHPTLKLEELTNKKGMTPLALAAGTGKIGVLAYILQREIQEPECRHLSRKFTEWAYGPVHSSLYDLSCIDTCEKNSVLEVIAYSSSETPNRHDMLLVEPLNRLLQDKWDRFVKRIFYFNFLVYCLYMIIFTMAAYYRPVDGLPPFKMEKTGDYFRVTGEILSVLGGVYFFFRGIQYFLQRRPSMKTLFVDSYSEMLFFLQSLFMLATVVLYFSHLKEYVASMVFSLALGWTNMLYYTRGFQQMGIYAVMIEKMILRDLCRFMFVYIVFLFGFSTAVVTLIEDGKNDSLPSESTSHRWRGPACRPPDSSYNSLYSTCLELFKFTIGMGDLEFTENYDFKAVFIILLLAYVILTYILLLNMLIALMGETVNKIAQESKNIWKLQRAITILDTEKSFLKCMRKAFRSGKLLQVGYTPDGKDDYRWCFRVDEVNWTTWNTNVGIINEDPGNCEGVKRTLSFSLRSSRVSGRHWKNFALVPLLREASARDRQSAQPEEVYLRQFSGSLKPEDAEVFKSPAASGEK
# Sequence of UniProt P27695 (P27695 whole entry, looked up): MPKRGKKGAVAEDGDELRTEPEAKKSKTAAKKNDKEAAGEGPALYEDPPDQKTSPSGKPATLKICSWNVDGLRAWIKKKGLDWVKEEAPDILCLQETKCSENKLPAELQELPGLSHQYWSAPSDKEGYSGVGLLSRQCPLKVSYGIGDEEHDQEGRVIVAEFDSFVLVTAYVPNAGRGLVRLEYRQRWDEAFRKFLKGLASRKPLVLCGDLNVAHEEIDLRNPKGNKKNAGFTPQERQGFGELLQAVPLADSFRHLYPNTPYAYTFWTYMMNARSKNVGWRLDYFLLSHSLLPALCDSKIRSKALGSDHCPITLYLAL
# Sequence of UniProt O89049 (O89049 whole entry, looked up): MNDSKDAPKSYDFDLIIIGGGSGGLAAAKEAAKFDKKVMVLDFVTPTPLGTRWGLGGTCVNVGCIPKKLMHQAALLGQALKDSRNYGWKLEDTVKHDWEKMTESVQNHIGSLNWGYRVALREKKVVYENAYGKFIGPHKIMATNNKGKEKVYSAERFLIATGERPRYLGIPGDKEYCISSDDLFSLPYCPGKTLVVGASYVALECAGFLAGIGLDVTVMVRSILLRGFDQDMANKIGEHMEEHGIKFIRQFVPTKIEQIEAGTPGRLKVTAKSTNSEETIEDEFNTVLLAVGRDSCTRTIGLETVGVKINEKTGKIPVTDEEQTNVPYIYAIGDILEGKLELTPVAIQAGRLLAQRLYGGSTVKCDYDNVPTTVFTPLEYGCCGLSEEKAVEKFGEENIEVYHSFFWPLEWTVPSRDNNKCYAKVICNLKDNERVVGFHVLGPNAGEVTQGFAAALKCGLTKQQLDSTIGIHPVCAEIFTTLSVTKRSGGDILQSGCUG
compound,measurement,setting,value
COC(=O)[C@@H]1[C@H]2C[C@H]3c4[nH]c5ccccc5c4CCN3C[C@@H]2CC[C@@H]1O,Potency,[1],"inconclusive [falling, single point]"
same,activity change,[2],inconclusive: 30.5%
same,Potency,[3],inactive
same,Potency,[4],inactive
CC/C(=C(\c1ccccc1)c1ccc(OCCN(C)C)cc1)c1ccccc1,Potency,[5],"inconclusive [falling, single point]"
same,Potency,[6],"inconclusive [falling, single point]"
same,Potency,[1],"inconclusive [falling, single point]"
same,Potency,[7],active: 17.8 µM
same,Potency,[8],"inconclusive [inhibitor, single point]"
same,Potency,[4],active: 13.1 µM
same,Potency,[9],"inconclusive [inhibitor, single point]"
CC#C[C@]1(O)CC[C@H]2[C@@H]3CCC4=CC(=O)CCC4=C3[C@@H](c3ccc(N(C)C)cc3)C[C@@]21C,Potency,[1],"inconclusive [falling, single point]"
same,Potency,[3],"inconclusive [falling, full curve, poor fit]"
CC12CC3CC(C)(C1)CC(N)(C3)C2,Potency,[1],"inconclusive [falling, partial curve, poor fit]"
same,Potency,[7],inactive
same,Potency,[3],inactive
same,Potency,[10],"inconclusive [activator, single point]"
C[C@]12C[C@H](O)[C@H]3[C@@H](CCC4=CC(=O)CC[C@@]43C)[C@@H]1CC[C@@H]2C(=O)CO,Potency,[1],"inconclusive [falling, single point]"
same,Potency,[11],inactive
NC[C@H](O)c1ccc(O)c(O)c1,Potency,[12],"inconclusive [inhibitor, full curve, poor fit]"
same,Potency,[5],inactive
same,Potency,[3],"inconclusive [activator, full curve, poor fit]"
same,Potency,[13],"inconclusive [inhibitor, partial curve, poor fit]"
COc1cc(C(=O)OCCCN2CCCN(CCCOC(=O)c3cc(OC)c(OC)c(OC)c3)CC2)cc(OC)c1OC,Potency,[1],"inconclusive [falling, single point]"
same,Potency,[7],"inconclusive [activator, single point]"
same,Potency,[3],"inconclusive [falling, single point]"
same,Potency,[4],active: 6.57 µM
same,Potency,[11],"inconclusive [inhibitor, partial curve]"
